{"sequences": {"note": "By UniProt entry, the sequences of proteins in these tests, tags left out. Residues count along the entry.", "GST-TNCIII3-5 (P24821, residues 801-1074)": "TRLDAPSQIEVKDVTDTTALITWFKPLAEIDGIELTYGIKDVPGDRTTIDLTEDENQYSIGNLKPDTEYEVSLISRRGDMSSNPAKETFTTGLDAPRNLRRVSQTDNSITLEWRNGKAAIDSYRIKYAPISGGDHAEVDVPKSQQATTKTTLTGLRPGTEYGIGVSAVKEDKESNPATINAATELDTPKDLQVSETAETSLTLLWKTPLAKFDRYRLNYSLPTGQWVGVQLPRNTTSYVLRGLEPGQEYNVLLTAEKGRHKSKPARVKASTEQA", "GST-TNCIII3-4 (P24821, residues 801-983)": "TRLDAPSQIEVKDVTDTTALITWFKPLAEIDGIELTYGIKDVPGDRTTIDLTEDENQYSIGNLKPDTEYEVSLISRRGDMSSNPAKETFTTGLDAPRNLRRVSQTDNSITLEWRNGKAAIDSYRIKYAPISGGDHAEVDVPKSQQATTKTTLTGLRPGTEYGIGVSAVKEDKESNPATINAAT", "GST-TNCIII3 (P24821, residues 801-891)": "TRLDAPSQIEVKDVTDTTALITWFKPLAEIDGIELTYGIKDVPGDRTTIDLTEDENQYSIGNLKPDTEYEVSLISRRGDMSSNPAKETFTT", "GST-TNCIII4-5 (P24821, residues 891-1074)": "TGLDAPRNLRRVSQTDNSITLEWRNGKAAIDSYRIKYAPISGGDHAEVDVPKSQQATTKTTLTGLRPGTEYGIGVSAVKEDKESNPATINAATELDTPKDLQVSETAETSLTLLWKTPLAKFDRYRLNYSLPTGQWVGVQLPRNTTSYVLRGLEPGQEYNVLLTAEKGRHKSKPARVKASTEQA", "GST-TNCIII4 (P24821, residues 891-983)": "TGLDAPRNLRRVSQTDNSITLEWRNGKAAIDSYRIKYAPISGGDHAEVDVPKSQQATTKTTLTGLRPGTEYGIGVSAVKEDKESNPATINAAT"}, "source": "paper PMC3630135", "about": "“Tenascin C Promiscuously Binds Growth Factors via Its Fifth Fibronectin Type III-Like Domain” (PLoS ONE, 2013)", "binders": {"B1": {"name": "PDGF-BB (ligand, human, UniProt P01127 82-190, looked up)", "chain": "SLGSLTIAEPAMIAECKTRTEVFEISRRLIDRTNANFLVWPPCVEVQRCSGCCNNRNVQCRPTQVQLRPVQVRKIEIVRKKPIFKKATVTLEDHLACKCETVAAARPVT", "notes": "Two B chains by its name; source: bought: Gibco"}}, "assay_in_all_cases": "ELISA; GST-TNCIII domains (1 µM in PBS) coated, blocked with 2% BSA; 2 nM PDGF-BB, 1 h RT; detected with anti-PDGF-BB and HRP anti-mouse; both purified", "key": {"GST-TNCIII3 (human)": {"biological_target": "GST-TNCIII3 (human) (UniProt P24821)"}, "GST-TNCIII3-4 (human)": {"biological_target": "GST-TNCIII3-4 (human) (UniProt P24821)"}, "GST-TNCIII3-5 (human)": {"biological_target": "GST-TNCIII3-5 (human) (UniProt P24821)"}, "GST-TNCIII4 (human)": {"biological_target": "GST-TNCIII4 (human) (UniProt P24821)"}, "GST-TNCIII4-5 (human)": {"biological_target": "GST-TNCIII4-5 (human) (UniProt P24821)"}}, "note": "These are yes or no findings as the source states them, for the method shown. Some results given as binding are weak or reduced against the parent protein; the word gives no strength.", "data": [{"binder": "B1", "values": [{"measurement": "binding", "setting": "GST-TNCIII3 (human)", "result": "no binding (tested: 2 nM)"}, {"measurement": "binding", "setting": "GST-TNCIII3-4 (human)", "result": "binds"}, {"measurement": "binding", "setting": "GST-TNCIII3-5 (human)", "result": "binds"}, {"measurement": "binding", "setting": "GST-TNCIII4 (human)", "result": "binds"}, {"measurement": "binding", "setting": "GST-TNCIII4-5 (human)", "result": "binds"}]}]}
